Some of the results follow.
B1: chr2:210678210:210678332:+|3pUTR|ENSG00000021826|unk|FALSE|unique (ssRNA)
RNA: GGGAGUUCUACAGUCCGACGAUCUUCAUCCAUUUACUAAUACUGUAUUUUUGGUGGACUAGGCUUGCCUAUGUGCUUAUGUGUAGCUUUUUACUUUUUAUGGUGCUGAUUAAUGGUGAUCAAGGUAGGAAAAGUUGCUGUUCUCAACAGAGGAUUGAGCAUCA
B2: chr9:72354534:72354635:-|3pUTR|ENSG00000107372|msi1|total|mutant (ssRNA)
RNA: GGGAGUUCUACAGUCCGACGAUCGUCCCCGUUUUUACUUUUAUUCUUAAAGCAUUCAGUUUUGCUUUCAAUUUUAUGUACCUCCGUUCUGAGUCCGACCUGCAGAUGUGUACAGACCGUUCAUAUUUAUGUAUUGCACAUAAUCAACAGAGGAUUGAGCAUCA
B3: chr15:63071210:63071313:+|3pUTR|ENSG00000140416|unk|FALSE|unique (ssRNA)
RNA: GGGAGUUCUACAGUCCGACGAUCCCUUAAAUGCAAUUUAUUUACUUUUACCACUGUCACAGAAACAUCCACAAGAUACCAGCUAGGUCAGGGGGUGGGGAAAACACAUACAAAAAGGCAAGCCCAUGUCAGGGCGAUCCUGGUCAACAGAGGAUUGAGCAUCA
B4: chr15:52550718:52550819:-|3pUTR|ENSG00000128989|msi1|FALSE|unique (ssRNA)
RNA: GGGAGUUCUACAGUCCGACGAUCUUUAUAUAAACUUUUUAAAUGUAGAAACUUUUUACUUCCACACUCAGUUUUGGAGACCCUAGAAUAAAAGGCUUCAAUACUCUGCAUUCCAUGCCCUCUGCCACCUGCUUUUUUUUCCCCCAACAGAGGAUUGAGCAUCA
B5: chr2:74214837:74214938:+|3pUTR|ENSG00000065911|msi1_unk|FALSE|overlapping (ssRNA)
RNA: GGGAGUUCUACAGUCCGACGAUCCUGUCCUUUUGAGGCUUAGUCAGUUUAUUGGGAAAAUGUUUAGGAUUAUUCCUUGCUAUUAGUACUCAUUUUAUGUAUGUUACCCUUCAGUAAGUUCUCCCCAUUUUAGUUUUCUAGGACCAACAGAGGAUUGAGCAUCA
B6: ENSG00000118705:stop:overlap|stop_codon|ENSG00000118705|stop_codon|NA|stop_codon (ssRNA)
RNA: GGGAGUUCUACAGUCCGACGAUCUGACGUUUCUGGCUGGCAAUCGGAUGCUGGCCCAGCAGGCAGUCAAGAGAACAGCACAUUAGUUCCAGAAGAAAGAUGGAAAUUCUGAAAACUGAAUGUCAAGAAAAGGAGUCAAGAACACAACAGAGGAUUGAGCAUCA
B7: chr10:131940083:131940120:+|CDS_3pUTR|ENSG00000175470|msi1_unk|FALSE|overlapping (ssRNA)
RNA: GGGAGUUCUACAGUCCGACGAUCAUAUAAUGUUUACAGCACCUUUCAAAGUCAUGAACCGGAGUUUGACUAUUUGAAAAGUCUAGAAAUUGAGGAAAAAAUUAAUAAAAUUAGGUGGUUACCACAACAGAAUGCUGCUCAUUUCAACAGAGGAUUGAGCAUCA
B8: ENSG00000136451:be:win_201|CDS|ENSG00000136451|bound_else_gene|NA|bound_elsewhere_windowed (ssRNA)
RNA: GGGAGUUCUACAGUCCGACGAUCAGAAAAACCCAAAACUUCAUUUGUGUGCACUUACUGCAGUAAAGCUUUCAGGGACAGCUAUCACCUGAGGCGCCACGAAUCCUGCCACACAGGGAUCAAGUUGGUGUCCCGGCCAAAGAACAACAGAGGAUUGAGCAUCA
B9: chr9:135932998:135933099:-|3pUTR|ENSG00000130560|unk|FALSE|unique (ssRNA)
RNA: GGGAGUUCUACAGUCCGACGAUCGCUGCUUGAAUUGCCGUGUAGACAUUUGCUUGGAGAGUCCACUUGUUAUUUGACGGAGGUAGGUUUCAACCCAGAGUUAAUGUCAAGCAUGCUAAUUUAACUAGUCACUCACAGAUGACUCAACAGAGGAUUGAGCAUCA
B10: chr12:50175971:50176072:-|3pUTR|ENSG00000050405|msi1|total|mutant (ssRNA)
RNA: GGGAGUUCUACAGUCCGACGAUCCACAGUAUUCUCAGGGUGAAAUUAAACCAACUACCGGCCUUUUUCUUGGGAUGAUUUUCCCGUCUUAAGGUUUGGGGACAUUAUAAACUUGAGUACAUUUGUUGUACACAGUUGAUAUUCCAACAGAGGAUUGAGCAUCA
B11: chr9:133361993:133362109:-|3pUTR|ENSG00000148248|msi1_unk|total|mutant (ssRNA)
RNA: GGGAGUUCUACAGUCCGACGAUCGGCAGGUUUCUGCUCAUAAGUGCUUUUGGAAGUCACCUACCUUUUUAACACAGCCGAACCCGUCCCAACGCGUUUGCAAAUAUUCCCCUGGCCGCCUACUUCCUUACCCCCGAAUAUUGGCAACAGAGGAUUGAGCAUCA
B12: ENSG00000130703:stop:overlap|stop_codon|ENSG00000130703|stop_codon|NA|stop_codon (ssRNA)
RNA: GGGAGUUCUACAGUCCGACGAUCCGUGUGGAUUAUUUGGAAAAGAACUUCACAAGGUGGAAGGACACAUUCAAGACAAAAAGUAGGUCCUUGCCAAGUGUUCAUGGGGCACCACUACAGCCUGUGUGUCCACGUUAGAAGGGCCAACAGAGGAUUGAGCAUCA
B13: chr16:67991837:67991979:-|CDS|ENSG00000167261|control|control|control (ssRNA)
RNA: GGGAGUUCUACAGUCCGACGAUCAACGACACUCAGAAAUUGGCCUGCCUCAUCGGUGUAGAGGGUGGCCACUCGCUGGACAAUAGCCUCUCCAUCUUACGUACCUUCUACAUGCUGGGAGUGCGCUACCUGACGCUCACCCACCAACAGAGGAUUGAGCAUCA
B14: chr2:112659350:112659462:+|CDS|ENSG00000144136|unk|total|mutant (ssRNA)
RNA: GGGAGUUCUACAGUCCGACGAUCCUUGCCAAGGUGGGAGAUUGCAUGGGAGACUCCGGUGACAAACCCUUAAGGCGCAAUAACCGCUAUACUUCCUAUACCAUGGCAAUAUGUGGCAUGCCUCUGGAUUCAUUCCGUGCCAAACAACAGAGGAUUGAGCAUCA
B15: ENSG00000104980:stop:overlap|stop_codon|ENSG00000104980|stop_codon|NA|stop_codon (ssRNA)
RNA: GGGAGUUCUACAGUCCGACGAUCUGCGGACGAGCGAGGUGCUACGGAAGAAGCUUGGGGAGCUGACGGGCACCGUGAAGGAGUAGAGCCUUCACGAAGUCAGUAAAAGUGAUCUCGGCCGGAAAAUCAAGGAGGGCGUGGAGGCAACAGAGGAUUGAGCAUCA
B16: ENSG00000178234:stop:overlap|stop_codon|ENSG00000178234|stop_codon|NA|stop_codon (ssRNA)
RNA: GGGAGUUCUACAGUCCGACGAUCUGUUAUCUGUUUCUAUAAUGAAGCGUUUUCUGCCUUGCUUCGGACAGUGCACAGUGUCAUAGACCGCACGCCAGCACACCUGCUUCAUGAGAUCAUCCUUGUGGAUGAUGAUAGUGACUUCAACAGAGGAUUGAGCAUCA
B17: chr3:122573770:122573871:+|3pUTR|ENSG00000163840|msi1|FALSE|unique (ssRNA)
RNA: GGGAGUUCUACAGUCCGACGAUCUAUUGGGUGCACUUGCCCUGCCACAGUAAUGCUAUAUAUUUCUGAGCAUUGUUUUUCUCUAGAUAAUUUUAUAUUUUUGAGUAUACCCCACUUCCAAGUGUUUUUUGUUUUGUUUUGCUUCAACAGAGGAUUGAGCAUCA
B18: chr20:64083387:64083705:-|CDS|ENSG00000171695|control|control|control (ssRNA)
RNA: GGGAGUUCUACAGUCCGACGAUCCUGAAGCCCGCGCGGAUCCCGGACCCCCUGGACCGCCAAGAGGUGCAGACAAGCCCCGGUAGGGGCGGGGAAAGGGGAGGGGCCCUGCCCGCCUCCGCACACGCCGGACCCCAGCCUCUCCAACAGAGGAUUGAGCAUCA
B19: chr10:5457295:5457390:+|3pUTR|ENSG00000173848|msi1_unk|total|mutant (ssRNA)
RNA: GGGAGUUCUACAGUCCGACGAUCUCUGGAUUCAUCAUGGCUUUCUAAUACCAAUUGUAAUAUUUACAAUAUUCACCAAAACUCCGAAUUUUGCAAAUGCUGGAAUUCUGCCAGUGUUUCUUUGCUAAGCCUUGCAUGCAAAAUCAACAGAGGAUUGAGCAUCA
B20: chr1:152033651:152033752:-|CDS|ENSG00000163191|unk|total|mutant (ssRNA)
RNA: GGGAGUUCUACAGUCCGACGAUCGGAUGGUUAUAACUACACUCUCUCCAAGACAGAGUUCCUAAGCUUCAUGAAUACAGAACCCGCUGCCUUCACAAAGGUACUGGUCCCUGUCUCCCCCACUUCCCCAAACUACCCACAACACAACAGAGGAUUGAGCAUCA
B21: chr1:6522505:6522606:-|3pUTR|ENSG00000162408|msi1|FALSE|unique (ssRNA)
RNA: GGGAGUUCUACAGUCCGACGAUCCUGGGAUUACAGGCGUGAGCCACUGCGCCUGGCCUGAAGCUAUUCUUUACAAAAGCUCUUAGUUUUUGUUUGUUUGUUUGUUUUUUUCUUUUGCGACGGACUCUCUGUCGCCAAGGCUGGCAACAGAGGAUUGAGCAUCA
B22: chr3:97755980:97756081:+|3pUTR|ENSG00000080224|unk|total|mutant (ssRNA)
RNA: GGGAGUUCUACAGUCCGACGAUCUAAUUAAAAAUCUCUUUCCUACCUUCCGUAAUUUGCCGGAUGAACUGUAUGCAUUCCGACCGAAAUUGCUUUUGUUAAAUUUACAUUUAAACACAUCUUCAUUCACUCCGAGAAGCCAUACAACAGAGGAUUGAGCAUCA

The binders below were run against MSI1 full-length (mouse, UniProt Q61474 1-362) (assay: nsRBNS (natural sequence RNA bind-n-seq); RBNS binding buffer (assumed for nsRBNS): 25 mM Tris pH 7.5, 150 mM KCl, 3 mM MgCl2, 0.01% Triton X-100, 500 ug/ml BSA, 20 U/ml SUPERase-In, 4 C; UNK is unkempt and MSI1 is Musashi-1; names of the RNAs are library labels; protein concentration not given here; high values mean tight binding).
Sequence of UniProt Q61474 (Q61474 whole entry): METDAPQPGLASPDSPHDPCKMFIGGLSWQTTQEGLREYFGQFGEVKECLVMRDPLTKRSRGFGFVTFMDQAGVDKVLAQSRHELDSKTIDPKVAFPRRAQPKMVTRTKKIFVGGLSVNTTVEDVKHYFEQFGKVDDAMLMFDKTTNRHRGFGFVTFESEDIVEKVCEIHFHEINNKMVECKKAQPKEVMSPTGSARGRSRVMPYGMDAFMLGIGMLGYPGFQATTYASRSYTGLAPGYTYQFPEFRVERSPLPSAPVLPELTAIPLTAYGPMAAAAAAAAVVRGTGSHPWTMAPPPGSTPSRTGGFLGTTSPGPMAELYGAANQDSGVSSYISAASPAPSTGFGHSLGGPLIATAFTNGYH

| Binder | binding signal [enrichment R] |
| --- | --- |
| B1 | 0.85 |
| B2 | 1.52 |
| B3 | 1.66 |
| B4 | 3.53 |
| B5 | 8.19 |
| B6 | 0.559 |
| B7 | 11 |
| B8 | 0.514 |
| B9 | 0.456 |
| B10 | 0.337 |
| B11 | 0.444 |
| B12 | 0.719 |
| B13 | 0.491 |
| B14 | 0.413 |
| B15 | 0.57 |
| B16 | 0.258 |
| B17 | 9.19 |
| B18 | 0.362 |
| B19 | 0.258 |
| B20 | 0.705 |
| B21 | 0.372 |
| B22 | 1.21 |

Reference: paper PMC12136788
